From a compilation of properties of binary mixtures (doi:10.1016/j.jct.2016.03.014)
Some of these densities may be calculated back from excess volumes.

Test: xn = mol fraction of the nth substance listed
Settings: 101.3 kPa

CC[n+]1ccn(C)c1.O=S(=O)([O-])C(F)(F)F + CCCCCO
mass density [kg/m3]
Settings | 298.15 K | 308.15 K | 318.15 K | 328.15 K
x2 = 0 | 1382.8 | 1374.4 | – | 1357.9
x2 = 0.0507 | 1365.7 | 1357.4 | – | –
x2 = 0.108 | 1345.5 | 1337.2 | 1329 | 1320.8
x2 = 0.1716 | – | 1313.7 | 1305.5 | –
x2 = 0.2365 | 1296.4 | – | 1280 | 1271.9
x2 = 0.3297 | 1256.9 | 1248.7 | 1240.6 | 1232.5
x2 = 0.4357 | 1207.4 | – | 1191.3 | 1183.2
x2 = 0.5702 | 1136 | 1128 | 1120 | 1112
x2 = 0.5941 | 1122.2 | 1114.1 | 1106.2 | 1098.2
x2 = 0.7208 | 1041.8 | 1033.9 | – | –
x2 = 0.8085 | – | 970.5 | 962.7 | 954.8
x2 = 0.8515 | 944.4 | 936.7 | 928.9 | 921.1
x2 = 0.8998 | 903.9 | 896.3 | 888.6 | 880.8
x2 = 0.9479 | 860.9 | 853.4 | – | 838

CCCCCO + CC[n+]1ccn(C)c1.O=S(=O)([O-])C(F)(F)F
x1 = 1
Settings | mass density [kg/m3]
298.15 K | 811.1
308.15 K | 803.7
328.15 K | 788.4
